Experimental data: the supplement of paper PMC4166925
± gives the standard deviation of the averaged measurements. Whole data set: some 33,000 sequences, median “E-score (dimensionless, -0.5 to 0.5)” near -0.046, cut for the highest 2% near 0.36. This is one part of the list.

system: T1, SpTbr T-box DNA-binding domain (GST fusion); test: PBM E-score of 8-mer (E-score (dimensionless, -0.5 to 0.5)); Tbr is Tbrain of the sea star Patiria miniata (Pm) or the sea urchin Strongylocentrotus purpuratus (Sp); higher = stronger binding preference; most listed sequences are background and not binding sites; conditions: the construct has about 5 more residues each side
T1 sequence: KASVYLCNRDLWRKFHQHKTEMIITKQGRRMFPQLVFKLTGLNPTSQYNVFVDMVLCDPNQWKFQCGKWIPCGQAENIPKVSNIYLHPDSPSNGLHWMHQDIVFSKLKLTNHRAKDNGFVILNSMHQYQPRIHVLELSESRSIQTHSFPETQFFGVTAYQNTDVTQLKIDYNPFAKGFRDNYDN
In short: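 Universal Agilent oligonucleotide arrays, made double-stranded by primer extension, were incubated with 200 nM GST-fused Tbr T-box DNA-binding domain in PBS (pH 7.5). The protein was expressed in BL21 E. coli at 20 °C and purified by glutathione affinity chromatography. After scanning and quantification, the Universal PBM Analysis Suite assigned an enrichment E-score to each ungapped 8-mer, averaged over duplicate arrays.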

Sequence	PBM E-score of 8-mer
CAATCGGA	-0.221 ± 0.015
ACGTCAGT	0.129 ± 0.053
GACGTATA	-0.0768 ± 0.028
CACGCCAA	0.278 ± 0.0052
ATAAAAGC	-0.0319 ± 0.08
AGTGGTTC	-0.0892 ± 0.026
TTACCAAA	0.0706 ± 0.014
GATGAGGC	-0.112 ± 0.027
CAGCTGTA	-0.0719 ± 0.024
CACCGGTA	0.119 ± 0.07
TATTCGAA	-0.0307 ± 0.088
AATGTACT	-0.0787 ± 0.011
CTAGTCCC	-0.138 ± 0.041
CAACAGAC	-0.0833 ± 0.036
TGACGGCA	0.181 ± 0.031
CAGAAAAC	-0.141 ± 0.052
GTCAACAC	0.434 ± 0.0065
ACGGCTCG	0.112 ± 0.05
CCATCGTC	0.152 ± 0.045
CACTGGTA	0.0119 ± 0.0091
GGTACACC	0.0483 ± 0.068
AATAGAAT	-0.0803 ± 0.073

Sequence	PBM E-score of 8-mer
ATCACTAG	0.0084 ± 0.021
GTACGCAC	0.155 ± 0.046
GAGTCCAA	-0.0956 ± 0.078
CCAGAACG	-0.0022 ± 0.05
ACCGGTCA	-0.0138 ± 0.059
ATCGCCCG	0.0885 ± 0.019
AGCAGGCT	-0.112 ± 0.021
CTGACTTA	-0.282 ± 0.053
ACTTCTCT	0.0471 ± 0.035
AATTGCCC	-0.0475 ± 0.046
CTTACATC	-0.0524 ± 0.031
TACCGTGA	0.0752 ± 0.024
GAGACGGA	-0.0933 ± 0.059
ACTGTCAA	0.183 ± 0.035
ATAGAGCG	-0.0811 ± 0.011
CTTGAGTC	-0.27 ± 0.028
ATGGTGCA	-0.0269 ± 0.053
CACGGGTC	0.0618 ± 0.0081
CGCCCCTC	-0.0184 ± 0.037
GGATTCCA	-0.0549 ± 0.074
GACGGTAC	-0.0628 ± 0.0078
CACCATGA	0.224 ± 0.035

Sequence	PBM E-score of 8-mer
ATCACATA	0.251 ± 0.055
CAGATCTA	-0.116 ± 0.053
GATGAGCC	-0.183 ± 0.027
GGCTTCCA	-0.277 ± 0.0097
ATGATAAC	0.092 ± 0.059
ATGCAACG	-0.179 ± 0.061
AGGTATGA	0.0596 ± 0.1
ACAACGTC	0.0487 ± 0.035
ATGACCGC	-0.276 ± 0.039
CTTTCCGA	-0.0285 ± 0.011
CGCGAACA	0.36 ± 0.019
AATTGCTC	0.0817 ± 0.052
ACTGATCA	-0.0788 ± 0.045
CCGCTTTA	-0.0876 ± 0.016
GCCCGAAA	-0.0313 ± 0.068
ATAGATTA	-0.192 ± 0.067
CATCGCAG	0.109 ± 0.046
GCCGTCCA	-0.141 ± 0.026
AGACGCTG	-0.00072 ± 0.027
GGGTGTTA	0.463 ± 0.0026
GACGGAGC	-0.152 ± 0.03
ACAATCAA	-0.00286 ± 0.085

Sequence	PBM E-score of 8-mer
CCCTAGCG	-0.169 ± 0.041
AACGACAA	0.174 ± 0.029
AAATGATG	-0.136 ± 0.032
CACATTCG	0.32 ± 0.027
AGTCCACG	0.0351 ± 0.016
ATTACCGA	-0.0478 ± 0.011
ATCGGTGA	0.0276 ± 0.0038
AGATTATC	0.107 ± 0.025
AATGCTCA	-0.103 ± 0.034
AGCGAAGG	0.0517 ± 0.061
CCGTTATC	0.12 ± 0.073
CTCCCTAA	-0.144 ± 0.072
AGAAATGA	-0.0865 ± 0.051
TACCAGAA	-0.0225 ± 0.033
ATGACCCC	-0.166 ± 0.0049
CGTTCGAC	0.132 ± 0.0074
ACCGACTC	-0.0639 ± 0.11
CTATTACC	-0.287 ± 0.022
ACGGGTAC	0.0182 ± 0.026
GGGCTGAC	-0.186 ± 0.038
AAGTAGAG	-0.0619 ± 0.085
TAAAATGA	-0.0731 ± 0.027

Sequence	PBM E-score of 8-mer
CCAGTGGC	0.0355 ± 0.044
AAGGTCGG	-0.0921 ± 0.015
AGCTTCTA	-0.193 ± 0.036
AATAAGTG	0.227 ± 0.081
ACACATCT	0.31 ± 0.029
CCCACTAA	-0.0685 ± 0.092
CGTGGCAC	0.203 ± 0.018
CAGAGTCC	-0.179 ± 0.019
CCCAGCTC	-0.146 ± 0.026
GAATCCTC	-0.138 ± 0.017
CCCTAGCC	-0.176 ± 0.018
CTTTAGGC	0.0616 ± 0.087
ACGTACAA	0.0169 ± 0.00054
GCCCGGCA	0.0357 ± 0.012
ATGACGCA	0.0994 ± 0.041
CTCAACGA	-0.0974 ± 0.069
ATGGGAGG	-0.265 ± 0.017
GCTTTCCC	0.15 ± 0.061
CTTGTACC	-0.197 ± 0.037
CGGGTGTA	0.134 ± 0.068
TACAGCGA	-0.193 ± 0.038
